We go through 29 compounds from PubChem BioAssay AID1745853 (National Center for Advancing Translational Sciences (NCATS), 2022).

Holding throughout (assay): Primary Screen for Target Class Profiling of Small Molecule Inhibitors of Methyltransferases
The target in experiment [1] is Glycine N-methyltransferase (Homo sapiens) (UniProt Q14749). As to conditions: purified enzyme, MTase-Glo SAH luminescence; measured here: GNMT inhibition; at 40 µM; stronger effect = lower value. Summed up: (§1)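 Each enzyme was assayed with SAM and its substrate. SAH formation detected by MTase-Glo luminescence; single-point 40 uM screen[…].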
Experiment [2] concerns the target Guanidinoacetate N-methyltransferase (Homo sapiens) (UniProt Q14353). As to conditions: purified enzyme, MTase-Glo SAH luminescence; measured here: GAMT inhibition; at 40 µM; stronger effect = lower value. Summed up: as §1
Experiment [3] deals with Histamine N-methyltransferase (Homo sapiens) (UniProt P50135). The conditions noted are these: purified enzyme, MTase-Glo SAH luminescence; measured here: HNMT inhibition; at 40 µM; stronger effect = lower value. The gist of the method: as §1
The target of experiment [4] is Nicotinamide N-methyltransferase (Homo sapiens) (UniProt P40261). The conditions noted are these: purified enzyme, MTase-Glo SAH luminescence; measured here: NNMT inhibition; at 40 µM; stronger effect = lower value. The gist of the method:
as §1

Experiment [5] deals with Phenylethanolamine N-methyltransferase (Homo sapiens) (UniProt P11086). As to conditions: purified enzyme, MTase-Glo SAH luminescence; measured here: PNMT inhibition; at 40 µM; stronger effect = lower value. Summed up:
as §1

Molecules are shown by their SMILES. The list shows a part of the results. The main result of the screen is listed elsewhere. These columns were measured beside it and carry no call.
% is scaled to controls: 0 for no effect and ±100 for the full control effect.

In the case of `CC(C)Cn1c(=O)c2ccccc2n2c(SCC(=O)NCc3ccc(Cl)cc3)nnc12`, the activity change, negative = inhibition in experiment [1] worked out at 6.54%; in experiment [2] it was 0.526%; in experiment [3], 12.5%; in experiment [4] it was 4.77%; in experiment [5], 7.98%.
Turning to `CC(C)NC(=O)c1ccc2c(=O)nc3c(-c4cccc(F)c4)n[nH]n3c2c1`, the activity change, negative = inhibition in experiment [1] was 3.04%; in experiment [2], 0%; in experiment [3], 1.1%; in experiment [4] it was 5.7%; in experiment [5] it was -0.72%.
In the same order, the values of `CCc1ccc(NC(=O)CSc2nnc3n(CCCOC(C)C)c(=O)c4ccccc4n23)cc1` are -7.43%, 3.45%, 0.826%, -1.69% and 0.46%.
In the same order, the values of `CCCNC(=O)N1CCCCCC1CN1CCCC1` (configuration not stated) are -4.19%, -2.29%, -1.2%, -4.94% and -1.59%.
Taken in the same sequence, the figures for `CC(CCc1ccccc1)NC(=O)CCn1ccc2cc(S(=O)(=O)N3CCCCC3)ccc21` (configuration not stated) were 6.13%, 0.65%, 7.02%, -0.004% and 3.19%.
Take `Cc1nc(C2CC23CCN(S(=O)(=O)c2cccc(F)c2)CC3)no1` (configuration not stated): the activity change, negative = inhibition is -5.18% in experiment [1]; -8.24% in experiment [2]; -4.49% in experiment [3]; -9.9% in experiment [4]; -10.2% in experiment [5].
Taken in the same sequence, the figures for `CC(O)(CC(=O)O)CC(=O)OCc1ccc(O[C@@H]2O[C@H](CO)[C@@H](O)[C@H](O)[C@H]2O)cc1` (some centres not stated) were 4.59%, 6.5%, 8.94%, -4.08% and 6.03%.
In the same order, the values of `CCc1ccc(NC(=O)CSc2nnc3[nH]c(=O)c(C(C)(C)C)nn23)cc1` are -11%, -1.79%, -2.26%, -10.5% and -6.65%.
On to `COc1ccc2c(c1)c(NC(C)=O)c1n2CC(C)(C(=O)NC2CCCC2)N(C2CCCCC2)C1=O` (configuration not stated), for which the activity change, negative = inhibition in experiment [1] was 3.88%; in experiment [2] it was 0%; in experiment [3], 6.93%; in experiment [4], 7.98%; in experiment [5] it was 1.03%.
Taken in the same sequence, the figures for `C/C=C(\C)C(=O)OC1C(C)C2(O)C3C=C(C)C(=O)C3CC(CO)=CC2C2C(C)(C)C12OC(C)=O` (configuration not stated) were -4.43%, -15.2%, 5.35%, -29.4% and -12.6%.
`COCC(c1ccc(C(F)(F)F)cc1)N1CCN(C2(C)CCN(C(=O)c3c(C)ncnc3C)CC2)CC1C` (configuration not stated): the activity change, negative = inhibition is -0.79% in experiment [1] and 5.71% in experiment [3].
As to `O=C(CCc1nnc2n(CCc3ccccc3)c(=O)c3ccccc3n12)N1CCN(c2ccccn2)CC1`, the activity change, negative = inhibition in experiment [1] was -24.6%; in experiment [2], 2.49%; in experiment [3] it was -8.63%; in experiment [4], -19.5%; in experiment [5], -4.07%.
In the same order, the values of `CCOc1ccc(C(=O)Cn2nc3n(CCC(C)C)c(=O)c4ccccc4n3c2=O)cc1` are 6.22%, 1.77%, 10.9%, -4.43% and 4.47%.
In the same order, the values of `CC(C)=CCCC1(C)C=Cc2c(c(C)cc3c2[nH]c2ccccc23)O1` (configuration not stated) are -1.02%, -4.7%, -8.35%, -17.5% and 0.808%.
In the same order, the values of `C=CCNC(=O)C(NC(=O)c1ccc(OC)cc1)C1CCN(C(=O)CCc2ccccc2)CC1` (configuration not stated) are -0.374%, 2.89%, 2.99%, -3.74% and 9.31%.
For the compound `COc1ccc(-c2nnc(-c3ccc(Cl)c(S(=O)(=O)N4CCCCCC4)c3)o2)cc1`, the activity change, negative = inhibition in experiment [1] was 13.1%; in experiment [2] it was 2.5%; in experiment [3], 11.4%; in experiment [4], 7.59%; in experiment [5], 8.78%.
In the case of `CCC(C)NC(=O)c1cc2n(n1)CC(C)(C(=O)NC1CCCCCC1)N(C)C2=O` (configuration not stated), the activity change, negative = inhibition is -5.5% in experiment [1]; -2.5% in experiment [2]; -0.248% in experiment [3]; -1.86% in experiment [4]; -0.217% in experiment [5].
On to `COc1cccc(N2CCN(C(=O)C3CCCN(c4cnc5nccnc5c4)C3)CC2)c1` (configuration not stated), for which the activity change, negative = inhibition in experiment [1] is -6.74%; in experiment [2], -6.8%; in experiment [3], -8.36%; in experiment [4], -11%; in experiment [5], -8.25%.
Taken in the same sequence, the figures for `CCc1cccc(N2C(=O)c3ccccc3CC2(C)C(=O)NCc2ccccc2C)c1` (configuration not stated) were -1.94%, 0%, -6.49%, -7.52% and -0.514%.
In the same order, the values of `CC(C)n1c(=O)c2ccc(C(=O)NC3CCCC3)cc2n2c(=O)n(CC(=O)NCc3ccccc3)nc12` are -3.27%, 1.26%, -4.02%, -17% and -3.9%.
In the case of `CCc1ccccc1NC(=O)CSc1nnc2n(CCc3ccccc3)c(=O)c3ccccc3n12`, the activity change, negative = inhibition in experiment [1] was 1.03%; in experiment [2], 0.001%; in experiment [3], 9.73%; in experiment [4] it was -3.11%; in experiment [5], 4.06%.
`Cc1ccc(NC(=O)Cn2nc3n(CCC(C)C)c(=O)c4ccccc4n3c2=O)c(Cl)c1`: the activity change, negative = inhibition turned out to be 7.02% in experiment [1]; 0.47% in experiment [2]; 10.5% in experiment [3]; 8.93% in experiment [4]; 5.4% in experiment [5].
Consider `CCCn1c(=O)c2ccc(C(=O)NC3CCCC3)cc2n2c(=O)n(CC(=O)c3cccc(Cl)c3)nc12`, for which the activity change, negative = inhibition in experiment [1] was 0.596%; in experiment [2], 2.81%; in experiment [3], -1.93%; in experiment [4], -5.43%; in experiment [5], -0.577%.
In the same order, the values of `Cc1cc2c(cc3n2CC(C)(C(=O)NC2CCCCCCC2)N(CCCN2CCCCCC2)C3=O)o1` (configuration not stated) are -0.587%, 4.38%, -9.47%, 4.04% and 2.55%.
In the same order, the values of `CC1CCC(NC(=O)C2(C)Cn3c(nc4ccccc43)C(=O)N2Cc2ccc(OC(C)C)cc2)CC1` (configuration not stated) are -9.58%, -0.655%, -5.57%, -23.2% and -4.4%.
Taken in the same sequence, the figures for `CC1CCN(CCCNC(=O)CCc2nnc3n(Cc4ccc(Cl)cc4)c(=O)c4ccccc4n23)CC1` were -11.2%, 4.97%, -66.1%, 2.33% and -6.11%.
For the compound `Cc1ccc(Cn2c(=O)c3ccccc3n3c(=O)n(Cc4ccc(Cl)cc4)nc23)cc1`, the activity change, negative = inhibition in experiment [1] worked out at 3.98%; in experiment [2], 0%; in experiment [3], 7.06%; in experiment [4], 0.753%; in experiment [5], 0.13%.
In the same order, the values of `COCC(=O)N(C1CCOCC1)C1CCN(C(=O)Cc2ccc(Cl)cc2)CC1` are -0.662%, 2.04%, 1.55%, 1.01% and -0.722%.
`O=C(N[C@H]1CCN2C(=O)[C@@H](Cc3c[nH]c4ccccc34)NC(=O)[C@H]12)c1cnccn1`: the activity change, negative = inhibition in experiment [1] was -3.38%; in experiment [2] it was -4.24%; in experiment [3], 2.01%; in experiment [4] it was -10.6%; in experiment [5] it was 8.36%.
